Where “and” joins values, the source holds several entries; their conditions need not be identical. Equal values may be shown once. The inconclusive results got no clear call from the source; some entries with a clear call stand among them for comparison. For some assays here: Potencies of inconclusive entries are doubtful fits and often do not repeat. Calls of active or inactive are those of the source. The call rests on the fitted dose curve; in most records, active means well fitted curve in the direction sought with a large enough effect; inconclusive means small, poorly fitted or top-dose-only effect, or another doubt; inactive means no such curve, though single readings can be large; an effect the other way counts as inactive or inconclusive.
Legend:
HEK293 = test: Cytotoxic Profiling of Annotated Libraries Using Quantitative High-Throughput Screening (AID 1296008); conditions: Five cell lines viability, CellTiter-Glo ATP luminescence, 48-72 h; max response: stronger effect = lower value; further: nearly all actives have a fitted effect of over 60% in size; further: potency means the concentration at half of the fitted maximal effect; on max response: on the % scale 0 is the no-effect control and ±100 the full control effect
How it was run: (§1)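 Cells exposed to compounds for 48 or 72 hr at 37 degrees Celsius. Viability read as ATP-coupled luminescence with CellTiter-Glo after 10 min at room temperature.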

HaCat = test: as above; conditions: Five cell lines viability, CellTiter-Glo ATP luminescence, 48-72 h; max response: stronger effect = lower value
How it was run: as §1

KB-3-1 = test: as above; conditions: Five cell lines viability, CellTiter-Glo ATP luminescence, 48-72 h; max response: stronger effect = lower value
How it was run: as §1

C33A = test: Primary qHTS to identify gynecologic anti-cancer compounds using libraries of approved drugs and bioactive compounds (AID 1345084); conditions: Gynecologic cancer cell panel viability, ATPlite luminescence, 48 h; series mostly up to 57.5 µM; further: nearly all actives have a fitted effect of over 55% in size; further: potency means the concentration at half of the fitted maximal effect; on activity change, negative = cytotoxicity: on the % scale 0 is the no-effect control and ±100 the full control effect
How it was run: (§2)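 Cells, 1,000 per well, were allowed to settle for 16 h at 37 C before compound addition. Five concentrations were tested for 48 h, and viability was read by ATPlite luminescence after 15 min at room temperature.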

CAOV3 = test: as above; conditions: Gynecologic cancer cell panel viability, ATPlite luminescence, 48 h; series mostly up to 57.5 µM
How it was run: as §2

CASKI = test: as above; conditions: Gynecologic cancer cell panel viability, ATPlite luminescence, 48 h; activity change, negative = cytotoxicity: at 57.5 µM (top of the series)
How it was run: as §2

Es-2 = test: as above; conditions: Gynecologic cancer cell panel viability, ATPlite luminescence, 48 h; series mostly up to 57.5 µM
How it was run: as §2

HeLa = test: as above; conditions: Gynecologic cancer cell panel viability, ATPlite luminescence, 48 h; series mostly up to 57.5 µM
How it was run: as §2

Hek293T = test: as above; conditions: Gynecologic cancer cell panel viability, ATPlite luminescence, 48 h, control line for the selectivity index; series mostly up to 57.5 µM
How it was run: as §2

OV90 = test: as above; conditions: Gynecologic cancer cell panel viability, ATPlite luminescence, 48 h; series mostly up to 57.5 µM
How it was run: as §2

SKOV3 = test: as above; conditions: Gynecologic cancer cell panel viability, ATPlite luminescence, 48 h; series mostly up to 57.5 µM
How it was run: as §2

Tov-21-G = test: as above; conditions: Gynecologic cancer cell panel viability, ATPlite luminescence, 48 h; activity change, negative = cytotoxicity: at 57.5 µM (top of the series)
How it was run: as §2

Tov112D = test: as above; conditions: Gynecologic cancer cell panel viability, ATPlite luminescence, 48 h; activity change, negative = cytotoxicity: at 57.5 µM (top of the series)
How it was run: as §2

NIH3T3 = test: Cytotoxic Profiling of Annotated Libraries Using Quantitative High-Throughput Screening (AID 1296008); conditions: Five cell lines viability, CellTiter-Glo ATP luminescence, 48-72 h; max response: stronger effect = lower value; further: nearly all actives have a fitted effect of over 60% in size; further: potency means the concentration at half of the fitted maximal effect; on max response: on the % scale 0 is the no-effect control and ±100 the full control effect
How it was run: as §1

JEG-3 = test: Primary qHTS to identify gynecologic anti-cancer compounds using libraries of approved drugs and bioactive compounds (AID 1345084); conditions: Gynecologic cancer cell panel viability, ATPlite luminescence, 48 h; series mostly up to 57.5 µM; further: nearly all actives have a fitted effect of over 55% in size; further: potency means the concentration at half of the fitted maximal effect; on activity change, negative = cytotoxicity: on the % scale 0 is the no-effect control and ±100 the full control effect
How it was run: as §2

[1] = P-glycoprotein substrates identified in KB-8-5-11 adenocarcinoma cell line, qHTS therapeutic library screen (AID 1346987); further: potency means the concentration at half of the fitted maximal effect; nearly all actives have a fitted effect of over 65% in size
How it was run: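 Luminescence from CellTiter-Glo, read 5 min after addition, quantified survival of KB-8-5-11 (P-gp-overexpressing) cells exposed to compounds for 72 h. AC50 was derived from concentration-response curves.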

PA-1 = test: Primary qHTS to identify gynecologic anti-cancer compounds using libraries of approved drugs and bioactive compounds (AID 1345084); conditions: Gynecologic cancer cell panel viability, ATPlite luminescence, 48 h; series mostly up to 57.5 µM; further: nearly all actives have a fitted effect of over 55% in size; further: potency means the concentration at half of the fitted maximal effect
How it was run: as §2

[2] = test system: Zika virus NS2B-NS3 protease (unlinked complex); test: Primary screen GU Rhodamine qHTS for Zika virus inhibitors: Unlinked NS2B-NS3 protease assay (AID 1347159); further: on the % scale 0 is the no-effect control and ±100 the full control effect; nearly all actives have a fitted effect of over 60% in size
How it was run: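 Unlinked NS2B/NS3, 25 nM; Rhod110 peptide, 1.5 microM; compounds, up to 114 microM. Reaction run 15 min at RT in 10 mM Tris-HCl pH 8.0, 0.01% Tween 20; kinetic fluorescence change fitted with a 4-parameter Hill model.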
Tags describe the fitted curve by direction and shape.

## CC(C)n1nc(-c2cc3cc(O)ccc3[nH]2)c2c(N)ncnc21
HEK293
  Potency: active: 1.33 µM and active: 1.46 µM
HaCat
  Potency: inconclusive: 21.1 µM [inhibitor, partial curve, poor fit] and active: 23.1 µM
KB-3-1
  Potency: active: 1.3 µM
C33A
  Potency: inconclusive: 3.55 µM [cytotoxic, partial curve, poor fit] and active: 794 nM
CAOV3
  Potency: active: 1.58 µM and inconclusive: 2.51 µM [cytotoxic, partial curve]
CASKI
  Potency: active: 8.91 µM and active: 15.8 µM
Es-2
  Potency: active: 3.16 µM and active: 2.24 µM
HeLa
  Potency: active: 17.8 µM and active: 14.1 µM
Hek293T
  Potency: active: 3.98 µM and inconclusive: 2 µM [cytotoxic, full curve, poor fit]
OV90
  Potency: active: 5.01 µM and active: 2.82 µM
SKOV3
  Potency: active: 1 µM and active: 631 nM
Tov-21-G
  Potency: active: 11.2 µM and active: 4.47 µM
Tov112D
  Potency: active: 7.94 µM and inconclusive: 7.08 µM [cytotoxic, partial curve, poor fit]

## Cc1cc(C)cc(C(=O)NOCCCCCC(=O)NO)c1
HEK293
  Potency: active: 1.64 µM
HaCat
  Potency: active: 1.84 µM
KB-3-1
  Potency: active: 2.06 µM
NIH3T3
  Potency: active: 5.8 µM
C33A
  Potency: active: 3.98 µM
CAOV3
  Potency: active: 8.91 µM
CASKI
  Potency: active: 7.08 µM
Es-2
  Potency: active: 3.16 µM
HeLa
  Potency: active: 3.16 µM
Hek293T
  Potency: active: 3.55 µM
JEG-3
  Potency: active: 3.16 µM
OV90
  Potency: active: 3.98 µM
SKOV3
  Potency: active: 3.16 µM
Tov-21-G
  Potency: active: 8.91 µM
Tov112D
  Potency: active: 3.55 µM

## O=C1CC2(CCCC2)CC(=O)N1CCNCC1COc2ccccc2O1 (stereo not given)
[1]
  Potency: inconclusive: 5.17 µM [inhibitor, full curve]
HEK293
  outcome: inactive
HaCat
  max response: inactive: -0.105%
KB-3-1
  Potency: inconclusive: 29.1 µM [inhibitor, single point]
Tov112D
  Potency: inactive

## CC(CSC(=O)c1ccccc1)C(=O)N1C[C@@H](Sc2ccccc2)C[C@H]1C(=O)O (stereo not given in full)
HEK293
  outcome: inactive
HaCat
  outcome: inactive
KB-3-1
  max response: inactive: -11.1%
NIH3T3
  max response: inactive: -0.681%
JEG-3
  Potency: inactive
OV90
  Potency: inconclusive: 1.12 µM [rising, partial curve, poor fit]
SKOV3
  Potency: inconclusive: 17.8 µM [rising, single point]

## CCCCCCCCCCCCCCCCCCNC(=O)OC1CCN(C(=O)OC[C@H](COC(=O)N(Cc2cccc[n+]2CC)C(=O)c2ccccc2OC)OC)CC1
[1]
  Potency: inconclusive: 29.1 µM [inhibitor, single point]
HEK293
  Potency: active: 7.5 µM
HaCat
  Potency: inconclusive: 33.5 µM [inhibitor, single point]
KB-3-1
  Potency: active: 6.51 µM
NIH3T3
  Potency: inconclusive: 29.9 µM [inhibitor, single point]
C33A
  Potency: inconclusive: 25.1 µM [cytotoxic, partial curve, poor fit]
CAOV3
  Potency: active: 15.8 µM
CASKI
  Potency: active: 15.8 µM
Es-2
  Potency: inconclusive: 28.2 µM [cytotoxic, single point]
HeLa
  Potency: inconclusive: 11.2 µM [cytotoxic, partial curve]
Hek293T
  Potency: inconclusive: 39.8 µM [cytotoxic, single point]
OV90
  Potency: active: 28.2 µM
PA-1
  Potency: active: 12.6 µM
SKOV3
  Potency: active: 20 µM
Tov112D
  Potency: inconclusive: 25.1 µM [cytotoxic, single point]

## C=C1CC(=O)C2OC2(C)CC2OC(=O)C(=C)C2C(O)C1OC(=O)/C(C)=C\C (stereo not given)
[1]
  Potency: inconclusive: 12.8 µM [inhibitor, single point]
[2]
  Potency: inactive
HEK293
  Potency: active: 6.4 µM
HaCat
  Potency: inconclusive: 20.2 µM [inhibitor, single point]
KB-3-1
  Potency: inconclusive: 12.8 µM [inhibitor, single point]
NIH3T3
  Potency: inconclusive: 16.1 µM [inhibitor, single point]
C33A
  Potency: inactive
Es-2
  Potency: inconclusive: 28.2 µM [cytotoxic, single point]
Hek293T
  Potency: inconclusive: 12.6 µM [cytotoxic, single point]
Tov-21-G
  Potency: inconclusive: 28.2 µM [cytotoxic, single point]

Source: PubChem BioAssay (NCATS)
